Assay results from the supplement of paper PMC12632987.
Whole data set: some 1,800 sequences, median “median log2 fold change of GCK-ALFA target abundance (FLAG IP / Myc IP barcode read proportion)” near 0.14, cut for the lowest 2% near -0.84. The list shows a part of the results.

T1: TRAF2, Q12933
T1 chain: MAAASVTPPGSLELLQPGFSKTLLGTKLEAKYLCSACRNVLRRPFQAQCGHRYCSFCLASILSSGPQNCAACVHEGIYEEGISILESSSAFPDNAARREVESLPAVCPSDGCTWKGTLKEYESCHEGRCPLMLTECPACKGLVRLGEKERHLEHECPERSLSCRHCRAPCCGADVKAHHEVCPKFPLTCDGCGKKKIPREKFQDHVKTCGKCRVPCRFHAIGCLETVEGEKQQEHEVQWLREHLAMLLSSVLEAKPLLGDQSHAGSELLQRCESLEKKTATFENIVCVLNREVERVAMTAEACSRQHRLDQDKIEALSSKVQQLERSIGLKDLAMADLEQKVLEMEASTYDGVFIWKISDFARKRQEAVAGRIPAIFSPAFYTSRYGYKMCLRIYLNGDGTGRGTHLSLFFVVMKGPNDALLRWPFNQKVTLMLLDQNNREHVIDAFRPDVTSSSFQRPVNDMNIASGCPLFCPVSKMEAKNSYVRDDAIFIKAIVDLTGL

B1: traf2_out_17_162_1477 (protein)
chain: MSIEEELKKLKEELKEIKEKAKELEEKLEKLEEMSYEELTDLLVEASELRRKALQLAEEFKEMAPLIGEEEAKKLAEEAEEIAERLQRIANKIYKEIEKK
B2: traf2_out_17_162_1489 (protein)
chain: GELEERLKELKKELEELKKKLKELKEKLKDLKNKSKEELTDLLVEVSELRRRALELAEELKELYEKTGDEELKELIKEAEELAEELQRLANKIYEELLKK
B3: traf2_out_20_38_2047 (protein)
chain: KEEEEEKKYNELIRKAAREGDEEADRRLEELRAAGVSPEEILERTTEEAVEKLKSVGAEDNAERIRLRAAHYREEGTYLEGAERIIISAKVALAVQEYLK
B4: traf2_out_16_104_1409 (protein)
chain: SAERQARFDAIIAELNAIADELGRLANEIYKLMETASAADKEKLSDALVDASELRRRAREAAIAAEEARKTGGDLAEQEAALARLTAEAAAVKAKAAALK
B5: traf2_out_18_3_1931 (protein)
chain: SEEERKEVSDKIDEIVDDARARAERELERAREELPEKREEIDRLRAALEAGAAPFGILDALAELYEEAGKEEEAKEIEEYLSEKRKEMQELVDEYEKLIK
B6: traf2_out_20_3_2147 (protein)
chain: EELERELAEELERAKALLAEAAALADPETAARLEALRERLEASRALSPSDQLVVVSEVRREVRLLAQEARAAGDEELAALLEEAAAALNRAANLLMRIIE
B7: traf2_out_16_177_1445 (protein)
chain: ELSEVMDKLVIYSKIARAAELALEGREEEAKKELKEAEKEAKEAGDEEALKLIKEIRALIEANTPEAKKRLAKILKEVRKKANELAEKAEELLKERAKKE
B8: traf2_out_6_156_2422 (protein)
chain: AAEAILAEAKERIRREIAELAAASEERKIAHISRIAGAVYRALQRLREAGASPEELKAAGEELRATAEAEAARAGLPQDVRDLLLASIDAVVEVALAEAA
B9: traf2_out_15_48_1365 (protein)
chain: NREEYLAVMREVADRQIAKADEVAARLAELLPRASPEVRPGLEALRDAALAGAGLSTIRAALRALAKRADPELAAELNALADEVEAVRRESSRRVAEVEK
B10: traf2_out_20_3_2164 (protein)
chain: SELEKKLEEELERALKLLKKAAELSDEETKKKLKELIERLKESRSLSPSDRLVVVSEVRREVLLLAQKAKAEGKEELAKLLEEAAEELNRAMQLLYEIIE
B11: traf2_out_6_156_2452 (protein)
chain: TLEEIKAKTKEEIEKAIKELAKASPEKKISYINKIAGAFYRGLQAAREAGASLEELKAFAEELLKTAEEAAKKAGLDEETKNLLLSSLNAVAEVALEEAK
B12: traf2_out_6_166_2460 (protein)
chain: MSEIEKRIREIIKELSKYSVEVILKAFEIVAKEVNEEDARILRQLASAVRQAQKLGLPIETALTATVDGLITLGVSEERLLELLEKVLKKAKELEKEKKA
B13: traf2_out_11_155_752 (protein)
chain: EEKRKLLNEMNDKIMEIFDKAREEVDELAKKTAEKYPEHKEKIEKKMKETEKFSPKSYMLSMRDLFKELGLEEEAKKVEEIIEKTQKEASKIVIETEKKL
B14: traf2_out_1_27_1019 (protein)
chain: STEELRELIKETSRKIAAVGPEEAKKIVKEAIKYAHENKIGNPEVLAVTLFTMQMDPEMREAIKEAVIEAFKELGVPEERIERVRRRMDSAAERLDKLLA
B15: traf2_out_6_156_2436 (protein)
chain: SIEEILKKTKEELEKLIKELAAASEEKKIFYINKIAGTVYRALQELRDSGASIEELEKFAEEVREFVEKALKEAGLDEDTQNLVLSSLNAVFQVALESAR
B16: traf2_out_17_162_1577 (protein)
chain: EELERRLEELKKELEELEKELEELKKKLPDFENMSYEELTDELVRASELKRRARELAEELRELREKLGEEELEELVRRAEEIAEELQRIMNEIYKEIEKK
B17: traf2_out_18_117_1776 (protein)
chain: SEREKIIKELKEIAERLEKAASKLGKVVLENWDKLSPEEKSEAMDVLADLTEVRQEALELIIKIENGEVPVEEAKKRLEELKKRAEEAIEKAEKMIEKIK
B18: traf2_out_20_3_2054 (protein)
chain: EELLKELEEEEKKLRELIEEIEKLVDPETAEELREALERVEKARKEGLEEYLVALSELRRLLLRLAEEARAAGKEEVAALLEEAAEAAQRAMNIVMKIIE
B19: traf2_out_17_162_1580 (protein)
chain: SELEEKLKKLEEELKKLKEKLKELEEKLKKLKEMSKEELTDLLVEASEARRKALELAEELKKLKPEIGEEKATKLIEEAEKIAERFQKIANEIYKELEKK
B20: traf2_out_13_95_1095 (protein)
chain: SAEVAAKINAIADKMLDEVLKILEELLKKMEKAGKLVEEVKEALDLAEKRSINEAIHLLKELAKKYPEFKEEFEEAIKKIEEIKREAGREVAKILKEEEE
B21: traf2_out_20_38_2001 (protein)
chain: SAEEEEEEKLKKIIDVANEAYDEASKEIEELKAAGKSVEEIAEIVRAKVRELLTAAGLEEELEELLADIDRALSSPNALRLFARIRARAVALVKQKELNE
B22: traf2_out_18_5_1953 (protein)
chain: SREEELKEALKSAERILSKKPEIEAEAKKLGVEELYKKAVEDFTRALENGEDLAKISTKHAEELAKKIGDPEKAEDLTYEIRRYVSAEYAKEVLEEMLKA
B23: traf2_out_18_3_1935 (protein)
chain: KEEKLKEISEKIDEIVDEARAKAREALAELKERHPELAERAEELEALLDAGAGPFGILEEIAELYREAGDEEKAKEIEEFLKEKRKKMSELVDEYEKLLK
B24: traf2_out_19_16_1984 (protein)
chain: SMEKAEELIKKMKEYLKEALELAKEAVAKIDELSREELSDKLVEISELKRKAQEALQKALELLKDDPERQKELREEFDEKLDEINRLSTVLVNKLEELLK
B25: traf2_out_11_155_686 (protein)
chain: EKKREINNKLVDEMSAIADEAKAQVRAIAEATGAAHPEAAAALAATAEATAGHGLRSFAGSMAATFRALGQDDAAAQVEALLAEAQKKMNEAVKKAEKEL
B26: traf2_out_20_3_2224 (protein)
chain: EELKRRVEEELERIERLLEEARPLLPEEDYERLRRLLEEARRALEEDLTDALVKLSELRRLALELAQEARAAGNEELAALLERMAEEANRAAGLVLKMIE
B27: traf2_out_15_48_1367 (protein)
chain: DAAAYRAAMNAAADRIIATKDEVKKEVKELAKVASPEVKKKLNEVAKLIEAGAGSQEIIAALKEAAKVASPELKAKLEELAERLRAARREASAIAAAMAK
B28: traf2_out_12_187_947 (protein)
chain: SVEDELLEAAKEGLRQAKRALEEAGPDDPRIRELLEKLLEAEKALEKDPSIASDLLVAASAALRYVRLLEAGADPEEVAAAAEEALEILDEVLAEAKARE
B29: traf2_out_3_89_2293 (protein)
chain: SAAQAATLAELRAQAAAYARGFAKSARFVAREMVRDGMSLDTLRGVLNAAATALAEVLAERAKEAGLSDADIAALTAEFTATLDAIVDEVLAEAAARRAA

Molecular target: T1, TRAF2, Q12933
Assay: median log2 fold change of GCK-ALFA target abundance (FLAG IP / Myc IP barcode read proportion) (log2 ratio); each designed protein is fused to an ALFA-tag nanobody in HEK293 cells to bring the named protein to FLAG-tagged glucokinase (GCK); Myc marks an untargeted standard; higher = target protein stabilised (more abundant)
Settings: target protein: 3xFLAG-MCP-GCK-ALFA reporter; HEK293 landing pad (RPLP)
Outline: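 Binders fused to an ALFA nanobody were recombined as a library into HEK293 landing-pad cells, which were induced with 2 μg mL^−1 doxycycline and then transfected to express a FLAG-tagged target and a Myc-tagged standard. After 48 h, circular RNA barcodes recovered by anti-FLAG and anti-Myc immunoprecipitation of lysates were reverse transcribed, amplified and sequenced. Each binder's target abundance is the median log2 ratio of FLAG to Myc barcode read proportions, from barcodes present at ≥10^−7 in both replicates, binders carrying ≥3 barcodes per replicate, a 10^−6 pseudocount and pooled replicates.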

Binder | median log2 fold change
B1 | 0.0704
B2 | 0.361
B3 | 0.277
B4 | 0.264
B5 | 0.304
B6 | 0.226
B7 | -0.0821
B8 | 0.0475
B9 | -0.0186
B10 | -0.157
B11 | 0.182
B12 | 0.469
B13 | -0.198
B14 | 0.0707
B15 | 0.119
B16 | 0.0914
B17 | 0.289
B18 | 0.588
B19 | 0.0169
B20 | -0.132
B21 | -1.24
B22 | -0.0294
B23 | -0.346
B24 | 0.272
B25 | 0.159
B26 | 0.141
B27 | -0.184
B28 | 0.218
B29 | -0.614
